# Some of the results follow. One pool of 16,384 single-stranded DNAs met each Rep nickase domain in vitro (1 h at 37 °C, 3 µM enzyme); the outer parts of the 90-letter strands are left off. Numbers give uncut DNA relative to the enzyme-free pool, as log2; the lower, the more was cut; hits are not called. The scaling is to total reads; values above 0 arise when much of the pool is cut.
# Columns and labels:
# Experiment in all cases: uncleaved DNA left, log2 of reads against the no-enzyme library (log2 ratio); higher = less cleavage (more negative = more Rep cleavage of the k-mer); sequences stand for … in CTCGTCCG…ACCGGAGA
# [1] = system: T1, Rep nickase domain of Muscovy duck circovirus
# T1 sequence (residues 1-111, tag not shown): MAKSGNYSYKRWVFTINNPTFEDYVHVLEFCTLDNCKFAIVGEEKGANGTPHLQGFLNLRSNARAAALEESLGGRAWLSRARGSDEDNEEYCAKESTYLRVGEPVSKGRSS
# Description: (§1)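 A pool of 90-nt single-stranded DNAs with seven random bases just before the constant AC of the nick site (name = the seven bases) was cut by 3 µM recombinant His6-SUMO-tagged Rep nickase domain (300 nM DNA, 50 mM HEPES pH 8.0, 50 mM NaCl, 1 mM MnCl2, 1 h, 37 °C, three replicates). Uncut DNA was amplified and sequenced.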
# [2] = system: T2, Rep nickase domain of banana bunchy top virus
# T2 sequence (residues 1-94, tag not shown): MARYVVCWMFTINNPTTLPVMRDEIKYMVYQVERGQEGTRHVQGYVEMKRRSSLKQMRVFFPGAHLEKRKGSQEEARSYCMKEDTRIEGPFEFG
# Description: as §1
# [3] = system: T3, Rep nickase domain of cabbage leaf curl virus
# T3 sequence (residues 1-116, tag not shown): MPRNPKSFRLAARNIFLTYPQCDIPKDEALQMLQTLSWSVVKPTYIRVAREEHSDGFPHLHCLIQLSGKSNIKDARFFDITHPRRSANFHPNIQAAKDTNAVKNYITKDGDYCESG
# Description: as §1
# [4] = system: T4, Rep nickase domain of chickpea chlorotic dwarf virus
# T4 sequence (residues 1-124, tag not shown): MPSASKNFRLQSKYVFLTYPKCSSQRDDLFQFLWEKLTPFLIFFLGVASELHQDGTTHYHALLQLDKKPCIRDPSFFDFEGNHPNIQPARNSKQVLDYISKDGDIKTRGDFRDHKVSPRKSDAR
# Description: as §1
# [5] = system: T5, Rep nickase domain of faba bean necrotic yellows virus
# T5 sequence (residues 1-98, tag not shown): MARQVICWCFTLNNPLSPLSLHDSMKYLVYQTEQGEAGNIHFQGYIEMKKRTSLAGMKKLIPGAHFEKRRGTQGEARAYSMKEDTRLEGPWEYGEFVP
# Description: as §1
# [6] = system: T6, Rep nickase domain of maize striate mosaic virus
# T6 sequence (residues 1-117, tag not shown): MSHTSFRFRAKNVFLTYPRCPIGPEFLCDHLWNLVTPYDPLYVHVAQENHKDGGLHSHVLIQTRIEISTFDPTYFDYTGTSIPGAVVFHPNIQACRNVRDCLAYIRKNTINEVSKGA
# Description: as §1
# [7] = system: T7, Rep nickase domain of porcine circovirus 2
# T7 sequence (residues 2-116, tag not shown): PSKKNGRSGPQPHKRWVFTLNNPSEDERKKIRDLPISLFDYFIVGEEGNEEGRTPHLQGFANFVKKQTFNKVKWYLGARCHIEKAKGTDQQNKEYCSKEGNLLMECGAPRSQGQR
# Description: as §1
# [8] = system: T8, Rep nickase domain of tomato golden mosaic virus
# T8 sequence (residues 1-124, tag not shown): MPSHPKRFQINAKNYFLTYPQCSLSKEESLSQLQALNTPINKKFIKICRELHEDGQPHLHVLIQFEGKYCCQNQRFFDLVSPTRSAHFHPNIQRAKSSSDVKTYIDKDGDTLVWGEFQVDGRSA
# Description: as §1
# [9] = system: T9, Rep nickase domain of tomato yellow leaf curl virus
# T9 sequence (residues 1-136, tag not shown): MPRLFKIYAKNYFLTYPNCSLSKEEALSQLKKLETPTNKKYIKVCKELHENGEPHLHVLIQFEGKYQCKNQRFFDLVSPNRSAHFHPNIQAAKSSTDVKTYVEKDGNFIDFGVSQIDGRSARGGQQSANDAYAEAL
# Description: as §1
# [10] = system: T10, Rep nickase domain of wheat dwarf virus
# T10 sequence (residues 1-137, tag not shown): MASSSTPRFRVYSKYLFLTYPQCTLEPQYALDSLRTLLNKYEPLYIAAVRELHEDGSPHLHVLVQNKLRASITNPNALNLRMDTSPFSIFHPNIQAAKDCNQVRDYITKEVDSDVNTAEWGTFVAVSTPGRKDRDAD
# Description: as §1
Sequence,uncleaved DNA left (log2) [1],uncleaved DNA left (log2) [2],uncleaved DNA left (log2) [3],uncleaved DNA left (log2) [4],uncleaved DNA left (log2) [5],uncleaved DNA left (log2) [6],uncleaved DNA left (log2) [7],uncleaved DNA left (log2) [8],uncleaved DNA left (log2) [9],uncleaved DNA left (log2) [10]
CAACCGC,-0.116,-0.116,-0.572,-1.25,-0.0635,-0.784,-0.327,0.0113,-0.105,-0.229
TCTCTAG,0.0236,-0.152,-0.446,-0.839,-0.0899,-1.19,0.0629,0.0675,-0.0153,-0.124
TTGCCGC,-0.208,-0.19,-0.934,-0.451,-0.213,-0.926,-0.303,-0.324,-0.112,-0.122
AGGCACC,0.0643,0.0114,0.335,0.629,-0.105,0.689,0.132,-0.0886,0.0325,0.0963
GTATTCG,-0.0447,0.0694,-0.723,-0.429,0.0534,-0.805,0.11,-0.0692,0.0712,0.00517
ACCGGAT,0.131,0.0269,0.336,1.47,0.0238,1.57,0.188,0.192,-0.0079,0.11
ACAATCC,-0.000128,0.031,-0.2,-0.227,0.0291,-0.48,0.137,0.00442,-0.0983,0.0445
CCGGTGT,0.00613,0.0714,0.0805,0.088,0.00542,0.254,0.165,-0.0662,-0.154,-0.138
AATCGAT,0.0737,0.00043,0.233,0.848,-0.0492,1.21,-0.262,0.00785,-0.0768,0.0828
CGGAATC,-0.0625,-0.0898,0.0854,0.546,-0.123,0.246,-0.0981,-0.219,-0.0855,0.0506
TCATTTG,-0.0801,0.0873,-0.58,-1.03,-0.0875,-1.36,0.116,-0.116,-0.0753,-0.202
ATGATCT,0.0103,-0.0221,-0.0138,-1.69,-0.0393,-0.191,-0.364,0.0498,-0.0113,0.0199
ACGACCA,-0.0786,-0.0213,-0.0379,-0.112,-0.0228,0.134,0.00887,-0.0452,-0.161,0.00459
CTCCATC,-0.0234,-0.0966,-0.075,-0.361,0.0261,-0.743,-0.105,-0.116,-0.00254,-0.079
TAGTTGG,-0.0781,-0.104,-0.316,-0.329,0.00724,-0.873,-0.381,-0.109,-0.0263,-0.0562
AGTAATA,0.0656,-0.0862,-0.05,-0.748,-0.0321,-0.0203,-0.762,0.0367,0.0712,0.0712
GCTTAGT,-1.33,-0.22,0.0715,0.0456,0.0753,-0.204,-2.16,0.0426,0.0618,-0.0908
CGCGTGC,0.111,-0.0885,-0.238,-0.131,0.0407,-0.529,0.188,-0.0274,-0.00394,-0.037
GTTGGGC,0.0707,0.149,0.547,1.14,0.0197,1.28,0.267,0.216,0.0805,0.0847
AGCCTGT,0.147,-0.0325,0.221,0.731,0.0167,1.62,0.098,0.126,-0.104,0.134
TGCCTCC,0.0418,-0.13,0.186,0.0131,-0.0766,0.568,-0.0977,-0.135,-0.0774,-0.0738
GGATATA,0.0615,-0.0441,0.714,1.7,0.0344,2.1,0.166,-0.123,0.0452,0.196
GGCGTAG,-0.0414,-0.0553,0.111,0.56,-0.0378,1.27,0.0867,0.0515,-0.0536,-0.112
GGACTCA,0.106,0.0887,0.786,1.73,0.0132,2.2,0.098,-0.0856,0.112,0.122
AAAAGAC,0.0437,0.00402,0.147,0.38,-0.0392,-0.208,0.0804,0.0897,-0.0435,-0.0319
TCACTTC,-0.0511,-0.107,-0.0641,-0.708,-0.176,-0.834,-0.0132,-0.0746,-0.164,-0.189
ACCGGTA,-0.188,-0.0497,0.049,-0.00702,-0.0356,-0.387,-0.0485,-0.0832,-0.199,-0.128
GTTGTGT,-0.0569,-0.108,-0.0794,0.0581,-0.0626,-0.211,-0.0339,-0.0348,0.014,-0.0703
CTTAGAT,0.0817,-0.0171,0.204,0.483,-0.003,0.591,0.065,0.0537,-0.0435,0.0859
ATCGTAA,0.0397,0.041,-0.0772,-0.228,0.106,-0.745,0.13,0.019,0.113,0.0621
